ChEMBL document CHEMBL4888484, “Replenishing the malaria drug discovery pipeline: Screening and hit evaluation of the MMV Hit Generation Library 1 (HGL1) against asexual blood stage Plasmodium falciparum ,using a nano luciferase reporter read-out” (2022)
About 540 (0.36%) of roughly 150,000 compounds showed an effect of 50% or more. The list shows a part of the results.

Tested on: Plasmodium falciparum
Assay: Primary screen in NF54 nanoGlo assay, in single point, at 2uM, 72h; a lower Z score goes with more inhibition
Assay type: functional, Erythrocyte
Details: timepoint 72 hour

Row | Compound | % Inhibition | Z score
1 | O=C1CN[C@@H](c2ccc(Cl)cc2)c2cc(Br)ccc2N1 | -4% | 0.64
2 | CC(=O)C1(c2ccccc2)CCN(C(=O)N2CCN(C)CC2)CC1 | -5% | 0.97
3 | Cc1ccc(CNC(=O)CN2C[C@@H]3CC[C@H]2C3)c2cccnc12 | -7% | 1.29
4 | O=S(=O)(F)c1ccc(S(=O)(=O)N2CC3CC(O)C3C2)cc1 (stereo unspecified) | 1% | -0.15
5 | COCCN[C@H](c1cncc(Br)c1)C1CC1 | 6% | -0.6
6 | N#Cc1ccc(N2CCC[C@H]2c2ccco2)cc1C(F)(F)F | 1% | -0.08
7 | O=C(NCCN1CCCCC1)Oc1ccccc1 | 0% | -0.06
8 | Cc1cnn(C[C@H](C)NCc2noc(C3CC3)n2)c1 | -7% | 0.84
9 | CC(C)(C(=O)N1C2CCC1C(CO)C2)c1cccnc1 (stereo unspecified) | -11% | 1.53
10 | COc1ccc(-c2c(C(=O)O)nnn2Cc2ccc(OC)c(F)c2)cc1 | -11% | 1.19
11 | COc1cccc([C@H]2CN(c3nccnc3C)[C@@H]3C4CCN(CC4)[C@H]23)c1 | -13% | 1.18
12 | Cc1cc(CN(C)C(=O)CN2CC3(CCCCC3)CC2=O)on1 | -12% | 2.2
13 | O=C1NC2(CCNCC2)C(=O)N1Cc1ccc(Cl)s1 | -7% | 0.89
14 | COc1ccccc1[C@H]1CN(C)[C@@H]2C3CCN(CC3)[C@H]12 | -6% | 1.03
15 | Cc1c(C)[n+]([O-])c([C@@H](c2cc(F)c(F)c(F)c2)C2C(=O)N(C)C(=O)N(C)C2=O)n1Cc1ccccc1 | 0% | -0.04
16 | CC(C(O)c1ccc2c(c1)CCCC2)N1CCCCC1 (stereo unspecified) | -24% | 3.1
17 | O=C(NC1(Cc2ccc(Cl)cc2)CCC1)c1ccc(S(=O)(=O)F)cc1 | -5% | 0.51
18 | Cc1cc(Cl)ccc1OCC(=O)N1CCC2(CC1)OCCO2 | -20% | 2.65
19 | Cc1noc(C)c1CN1CCOCC2(CC2)C1 | 6% | -0.6
20 | Cc1nc(-c2cccs2)cc([C@H]2CN3CC[C@H]2C[C@@H]3CNC(=O)C2CCC2)n1 | 29% | -3.27
21 | Cc1ccc(OCC(=O)N2C[C@H]3CC[C@@H](C2)N(C)C3)cc1C | -18% | 1.62

Row | Compound | % Inhibition | Z score
22 | CC(=O)c1c(-c2cccc(C(=O)N[C@H]3CN4CCC3CC4)c2)cnn1C | -5% | 1.09
23 | Cc1ccc(S(=O)(=O)NC[C@H]2C[C@@H]3CC[N@]2C[C@@H]3CN2CCC(Cc3ccccc3)CC2)cc1 | 19% | -2.96
24 | CN1C(=O)CO[C@H]2CN(Cc3ccncc3)C[C@H]21 | -6% | 1.1
25 | Nc1ccc(-c2ccc([C@@H]3CCCN3)cc2)nc1 | 2% | -0.34
26 | O=C(c1c[nH]c2cc(Cl)ccc2c1=O)N1CCC2(CC1)OCCO2 | -9% | 1.17
27 | CC(C)Oc1ccc(C(=O)NCC#CCN(C)C)cc1 | -9% | 1.69
28 | Cn1nc(C(=O)NC2CCOCC2N2CCCC2)cc1Cl (stereo unspecified) | -19% | 2.49
29 | CN(Cc1ccc(Br)o1)C(=O)CN1CCCC1=O | -8% | 1.3
30 | CCNC(=O)c1ccnc(N2C[C@@H](c3ccccc3)[C@@H]3[C@H]2C2CCN3CC2)c1 | -14% | 1.33
31 | CN1C2CCC1CN(c1cncc(Br)c1)CC2 (stereo unspecified) | -6% | 0.81
32 | O=C1N=C(O)N(c2ccc(Cl)cc2)C(=O)C12Cc1ccccc1N1CCN(c3ccccc3)CC12 (stereo unspecified) | 14% | -1.77
33 | Cc1ccc(NC(=O)N2CC(=O)N(CC(=O)N3CCC4(CC3)OCCO4)c3ccccc32)cc1 | -3% | 0.46
34 | COc1ccc(NC(=O)CN2CCCNS2(=O)=O)cc1 | -12% | 1.56
35 | Cc1ccc(-c2cn(CC(=O)Nc3cccc(C)c3)c(=O)o2)cc1 | -12% | 1.18
36 | Cc1nnc(CN2CC=C(c3ccc(Cl)c(Cl)c3)CC2)n1C | -3% | 0.47
37 | CCN1CCC2C(C1)OCCN2C(=O)Cc1cccnc1 (stereo unspecified) | 1% | -0.12
38 | Cc1ccc([C@H](C)Nc2cc(C)nc(N)n2)cn1 | -8% | 1.15
39 | C[C@H]1COC2(CCN(C(=O)c3cc4c(OC(F)(F)F)cccc4[nH]3)CC2)O1 | 6% | -0.84
40 | CCc1cccc(N(C(=O)c2ccc(NC(C)=O)cc2)C2(C(=O)NCc3ccccc3)CCN(C(C)=O)CC2)c1 | 0% | 0
41 | COc1ccccc1[C@@H]1CN(C(=O)c2ccc(C)[nH]c2=O)[C@@H]2C3CCN(CC3)[C@@H]21 | 5% | -0.56
42 | Cc1ccc(CN2CCCC23CCN(c2ccccn2)CC3)o1 | -14% | 2.71

Row | Compound | % Inhibition | Z score
43 | Cc1cnn(C2CCCN(C(C)C(=O)Nc3ccc(C#N)c(Cl)c3)C2)c1 (stereo unspecified) | -2% | 0.21
44 | Cc1c(C)[n+]([O-])c([C@@H](c2ccc(O)cc2)C2C(=O)N(C)C(=O)N(C)C2=O)n1Cc1ccccc1 | 5% | -0.67
45 | Clc1ccc(-n2nnnc2C2(NC3CCCCC3)CCCCC2)cc1 | 6% | -0.79
46 | O=C1NC(=O)C(Cc2cccs2)C(=O)N1 | 9% | -1.6
47 | CCc1cc(N2CC3(CCN3Cc3ccccc3)C2)ncn1 | 1% | -0.07
48 | COc1ccc(CNc2ccc3oc(=O)[nH]c3c2)c(OC(C)C)c1 | -9% | 1.21
49 | C[C@@H](C(=O)Nc1ccccc1OC(F)F)N1CC=C(c2cccnc2)CC1 | -2% | 0.37
50 | COCc1nn(Cc2ccc(OC(F)F)cc2)c(=O)o1 | -5% | 0.98
51 | CN1C[C@H]2CC[C@@H](C1)N(C(=O)c1cc(C(C)(C)C)nc(=O)[nH]1)C2 | 3% | -0.55
52 | CC(C)CCCN1C(=O)NC(=O)[C@@]2(Cc3c(ccc4ccccc34)N(C)C2)C1=O | -1% | 0.12
53 | O=C(O)[C@@]12COc3ccccc3[C@@H]1CN(CCCC(F)(F)F)C2 | -1% | 0.18
54 | CCn1cc(C(=O)NCc2ccc(N3CCNCC3)c(F)c2)cn1 | -7% | 0.95
55 | CCn1cc(CNc2nc(C(F)(F)F)cs2)c(=O)[nH]c1=O | 26% | -2.97
56 | O=C(Nc1ccncc1)[C@@H]1Cc2[nH]cnc2C2(CCCCC2)N1 | -6% | 0.88
57 | COc1ccc(C(=O)N2CCN3CCC2CC3)c(OC)c1 | -6% | 0.89
58 | O=C(c1cc(F)cc(F)c1)N1CCC2(CC1)N(c1ccccc1)C(=O)CS2(=O)=O | -15% | 2.33
59 | CCN(CC)C(=O)Oc1ccc2c(ccn2Cc2ccc(C#N)cc2)c1-c1ccc(F)c(Cl)c1 | -5% | 0.8
60 | Cc1ccc([C@H]2CN(C(=O)Cc3ccc4[nH]c(C)nc4c3)C[C@@H]2N(C)C)cc1 | -10% | 0.97
61 | CC(C)Cn1ncnc1CN1CCC[C@H](c2n[nH]c(=O)o2)C1 | 13% | -1.64
62 | CCN(CCn1cccn1)S(=O)(=O)c1ccc2oc(=O)[nH]c2c1 | -15% | 2.93
63 | CC(=O)OC1(c2ccccc2)CCCCC1CN(C)C (stereo unspecified) | -7% | 1.17

Row | Compound | % Inhibition | Z score
64 | CCNC1(c2nnnn2-c2cccc(C)c2)CCCCC1 | -3% | 0.39
65 | Cc1nnc(CN2CC3CCC(C2)O3)o1 | 4% | -0.49
66 | O=C(c1ccccc1)N1C[C@@H]2C[C@H](C1)c1c(-c3cncnc3)ccc(=O)n1C2 | -11% | 2.13
67 | CCOc1ccc(CC2(CN3CCc4cc(OC)c(OC)cc4[C@@H]3C)C(=O)N(C)C(=O)N(C)C2=O)cc1 | -1% | 0.14
68 | N[C@@H](Cc1c[nH]cn1)c1ncnn1C1Cc2ccccc2C1 | 4% | -0.55
69 | C[C@@H](CNC(=O)N1CCN2CCC1CC2)c1ccc(F)cc1F | -6% | 0.88
70 | CC(C)(C)OC(=O)N1CCN2C[C@@H](F)C[C@H]2C1 | -5% | 0.63
71 | CN1CC[C@]2(CCN(C(=O)Nc3cccc(-c4ccon4)c3)C2)C1 | -8% | 1.44
72 | Cc1nc(-c2nn(CCN3CCCCC3)c3ccccc23)no1 | -3% | 0.41
73 | O=c1[nH]c2cc(Br)c(S(=O)(=O)N3CCCO3)c(Cl)c2o1 | 4% | -0.74
74 | COC[C@](C)(NC(=O)C1C(C)(C)C1(C)C)C(=O)O | -18% | 2.42
75 | CC(C)(C)[C@@H](N)Cc1ccc(Cl)cc1 | -14% | 2.23
76 | C[C@@H](Cn1cccn1)NCc1nnnn1C1CC1 | -1% | 0.1
77 | Cn1cc(CCN2CCN(C(=O)COc3ccc(Cl)cc3Cl)CC2)nn1 | -6% | 1.06
78 | CC(C)N1C[C@@H]2OCC(=O)N(Cc3ccncc3)[C@@H]2C1 | 14% | -1.61
79 | C[C@@H](Cc1cnccn1)NCc1c(C(=O)N2CCCCCCC2)nc2ccc(Cl)cn12 | -18% | 1.96
80 | OC1CCN(CCc2cc(Cl)c3c(c2)OCCCO3)CC1 | -7% | 1.28
81 | Cc1nc(Cn2nc(C(C)(C)C)oc2=O)oc1C | 35% | -0.83
82 | Cc1csc(C[C@H]2CCN(C(=O)c3ccc4oc(=O)[nH]c4c3)C2)n1 | -16% | 2.08
83 | CC1C(=O)CCC1CC(=O)N1CCC(c2n[nH]c(=O)o2)CC1 (stereo unspecified) | -3% | 0.51
